Measurements taken from article PMC6919601, “Identification of Plasmodium dipeptidyl aminopeptidase allosteric inhibitors by high throughput screening” (PLoS ONE, 2019).
In all, about 110,000 compounds went through this assay and about 230 (0.21%) showed an effect of 50% or more. This is one part of the list.

Each molecule was assayed against DPAP1 (Plasmodium falciparum, UniProt Q8IIJ9) (assay: primary screen, percent inhibition; read by cleavage of a fluorogenic dipeptide substrate; higher = more effect of the substance).
Sequence of DPAP1 (Q8IIJ9 whole entry, looked up): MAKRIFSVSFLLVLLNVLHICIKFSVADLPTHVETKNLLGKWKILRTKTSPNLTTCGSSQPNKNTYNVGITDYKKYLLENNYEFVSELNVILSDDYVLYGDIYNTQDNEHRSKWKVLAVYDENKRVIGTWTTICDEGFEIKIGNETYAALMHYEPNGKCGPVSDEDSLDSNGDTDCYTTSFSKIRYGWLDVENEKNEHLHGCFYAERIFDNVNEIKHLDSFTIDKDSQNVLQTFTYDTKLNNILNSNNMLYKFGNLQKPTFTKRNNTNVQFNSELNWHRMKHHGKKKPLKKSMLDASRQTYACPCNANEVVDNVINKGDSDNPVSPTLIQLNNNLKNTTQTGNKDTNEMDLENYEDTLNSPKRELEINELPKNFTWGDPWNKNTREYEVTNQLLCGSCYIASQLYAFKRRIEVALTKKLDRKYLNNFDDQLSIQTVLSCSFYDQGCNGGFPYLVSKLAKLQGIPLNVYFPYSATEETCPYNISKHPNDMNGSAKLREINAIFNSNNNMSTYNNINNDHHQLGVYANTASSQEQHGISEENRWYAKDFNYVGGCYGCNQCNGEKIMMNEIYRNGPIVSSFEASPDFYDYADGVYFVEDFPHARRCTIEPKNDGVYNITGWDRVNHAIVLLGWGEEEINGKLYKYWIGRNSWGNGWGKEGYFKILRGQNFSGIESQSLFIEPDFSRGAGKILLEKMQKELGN
Set-up: species or system P. falciparum D10 trophozoite lysates; single well
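Further: 30 min substrate incubation versus DMSO and 10 µM JCP410 controls.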

Compound	% Inhibition @ 10 uM [%]
COc1ccc2[nH]c(C)c(CCNC(=O)c3cc(OC)c(OC)c(OC)c3)c2c1	2.18
CCOC(=O)c1c(NC(=O)c2cc(-c3ccc(F)cc3)on2)sc(C(C)=O)c1C	6.87
Cc1cc(C)c(S(=O)(=O)N2CCc3ccccc3C2)c(C)c1	-0.856
CSc1nc(-c2ccccc2)nc(NC(=O)c2ccccc2)c1C(C)=O	-5.51
COC(=O)c1ccccc1NC(=O)CCCC(=O)O	2.4
Cc1ccc(Cl)cc1N1CCN(C(=O)COc2ccc(S(=O)(=O)NC(C)(C)C)cc2)CC1	1.39
CCCn1/c(=N\C(=O)c2cccc(OC)c2)c(C(=O)OCC)cc2c(=O)n3ccccc3nc21	3.61
CC1(C)CC2=Nc3nc(SCCN4CCOCC4)nc(O)c3C(c3cccs3)C2=C(O)C1 (stereo not shown)	8.5
Cc1cccc(CCNC(=O)C2CCCN(c3ncnc4c3nc3n4CCCCC3)C2)c1 (stereo not shown)	-0.48
COc1cccc(CN2CCN(Cc3ccc(C(F)(F)F)cc3)CC2)c1OC	9.76
O=C(C(=O)c1ccc(-c2ccccc2)cc1)c1ccccc1	4.35
CCC(CC)NCc1ccc(OC)cc1OC	4.3
O=C(NCCC1=CCCCC1)c1ccc(CNS(=O)(=O)c2ccc(Cl)cc2)cc1	-5.64
COc1ccccc1/N=c1/sc2ccccc2n1C	-6.43
O=C(CCCOc1ccc(Cl)cc1Cl)NCc1nc2ccccc2[nH]1	7.24
Fc1ccc(CN2CCN(C/C=C/c3ccccc3)CC2)cc1F	-2.56
CCCN1CN(Cc2ccccc2)CC2=C1CC(C)(C)CC2=O	7.94
CCCS(=O)(=O)c1c(S(=O)(=O)CCC)c2ccccn2c1C(N)=O	-1.25
CCOc1ccc(-c2cc(NC(=O)c3c(F)cccc3F)c(C(=O)O)s2)cc1	1.22
COc1ccccc1NC(=O)C1=C(C)N=C2CC(C)(C)CC(O)=C2C1c1cccc(O)c1 (stereo not shown)	-0.366
CC(=O)NCc1cccc(CNC(C)=O)n1	-2.63
Cc1cccc(C(=O)Nc2c(-c3ccccc3)nc3ccccn23)c1	2.83

Compound	% Inhibition @ 10 uM [%]
O=C1OC(/C=C/c2ccccc2)=NC/1=C/c1cccs1	-1.29
CC1=NC2=C(C(=O)CC(C)(C)C2)C(c2ccccn2)/C1=C(/O)OC(C)C (stereo not shown)	2.22
COc1ccccc1C(=O)Nc1c(O)oc2ccccc2c1=O	-3.9
COc1ccc(/C=C2/NC(=O)N(Cc3ccccc3F)C2=O)cc1	-3.63
O=C1NC(=O)N(c2ccccc2)C(=O)/C1=C\Nc1ccc(S(=O)(=O)N2CCCCC2)cc1	-2.8
CCc1c(C)nc(Nc2nc(C)c3cc(C)ccc3n2)nc1O	-3.29
COc1ccc(Br)cc1CNCCNC(=O)c1nonc1N	3.84
CN1CCN(c2ccc(NC(=O)c3cccc(Br)c3)cc2)CC1	8.43
CC(NC(=O)Cn1ncc2c1-c1ccccc1OC2)c1ccc2c(c1)OCCO2 (stereo not shown)	-6.07
O=C1c2ccccc2COC12OCc1ccccc12 (stereo not shown)	-5.7
O=C(Nc1cccc(Cl)c1)N(CCN1CCOCC1)Cc1ccccc1F	-0.519
Cc1c(-n2nnc3ccccc32)cnc2nncn12	2.57
CCN(CC)C(=O)C(=O)NC(C)C(c1cccs1)N1CCN(C)CC1 (stereo not shown)	0.66
COCCCNC(=O)C(C)n1nc(C)c2c(C)n(-c3ccccc3)nc2c1=O (stereo not shown)	4.32
COc1cccc(C(=O)N[C@@H](CC2CCCCC2)C(=O)NCC#N)c1	1.35
C1CCN(CCNC2CCSC2)CC1 (stereo not shown)	2.99
Cc1nn(C(C)C(=O)NCCC2=CCCCC2)c(=O)c2c1sc1ccccc12 (stereo not shown)	1.31
CCc1cc2c(=O)n(Cc3cccc(C)c3)cnc2s1	-1.26
CCC(C)NC(=O)c1ccc(COc2ccc(Cl)cc2)o1 (stereo not shown)	0.5
Fc1ccc(-c2cc(C(F)(F)F)nc(NC3CCCC3)n2)cc1	-0.503
COc1cc(CN2CCCCCC2)c([N+](=O)[O-])cc1OC	-3.56
CCN1CCN(CCNC(=O)C(C)n2nc(C)c3c(C)n(-c4ccccc4)nc3c2=O)CC1 (stereo not shown)	-1.94

Compound	% Inhibition @ 10 uM [%]
O=C(COc1ccccc1)NCCn1ccc2ccccc21	-4.16
CCCN(CCO)CC1=CC[C@H]2C[C@@H]1C2(C)C	-4.37
O=C(NCc1ccc2c(c1)OCO2)c1cc(S(=O)(=O)N2CCCCC2)c[nH]1	0.0281
O=C(Nc1ccc(-c2cn3cccnc3n2)cc1)c1ccc(Br)cc1	0.13
COc1cc(C2C(C#N)=C(N)OC3=C2C(=O)c2ccccc2C3=O)cc(OC)c1OC (stereo not shown)	-0.0678
Cc1ccsc1C(C#N)NC(=O)C(CC(C)CC(C)(C)C)NC(=O)OCc1ccccc1 (stereo not shown)	4.63
NC(=O)c1cc(-c2ccc(O)cc2)nc2ccccc12	-2.35
COc1ccc(CC(=O)N2CCOCC2)cc1	-1.92
Cc1cccc(NC(=O)C(CC(C)C)N2Cc3ccccc3C2=O)n1 (stereo not shown)	-7.33
Sc1nnc(-c2ccccc2)n1/N=C/c1cc2c(cc1Cl)OCO2	1.25
CC(C)C[C@H](NC(=O)c1ccccc1CCc1ccccc1)C(=O)NCC#N	-3.04
CCN(CC)Cc1n[nH]c(CN(CC)CC)n1	2.02
Cc1ccc(CN(C(=O)COc2cc(C)c(Cl)c(C)c2)C2CCS(=O)(=O)C2)o1 (stereo not shown)	5.29
COc1ccc2c(c1)CC/C(=C\c1cccc([N+](=O)[O-])c1)C2=O	-0.0369
c1ccn(-c2ccc(-c3noc(C4CCCCC4)n3)cc2)c1	2.99
COc1ccc(CCNc2sc(S(C)(=O)=O)nc2S(=O)(=O)c2ccc(Cl)cc2)cc1	-0.522
Cc1ccc(-c2cc(-c3ccc(F)cc3)nc(N)c2C#N)o1	-3.13
Cc1ccc(C2=NC(=O)/C(=C/c3cc(O)c(O)c(Br)c3)S2)cc1	22.3
Cc1ccc(C(=O)NC(Cc2c[nH]c3ccccc23)C(=O)O)o1 (stereo not shown)	0.503
N#CC1=C(N)N2C(=C(C#N)C1c1ccc(Cl)cc1)Sc1ccccc12 (stereo not shown)	6.06
